The list shows a part of the results.
What was measured:
Experiment in all cases: glycan array binding signal (z-score within array); higher = stronger binding
Conditions in all cases: glycan notation: IUPAC condensed, linker removed
[1] = target: Neu5Ac(a2-3)[GalNAc(b1-4)]Gal(b1-4)Glc
Summary of the method: (§1)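 Glycan array data were curated from 3228 arrays in the Consortium for Functional Glycomics database and kept only where the protein sequence was available. Glycan names were converted to IUPAC-condensed notation, and columns mapping to the same glycan were averaged. The binding signal is a within-array Z-score, averaged across arrays of the same protein sequence at different concentrations or buffers and across linkers. Negative Z-scores can be read as non-binding.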

[2] = target: Neu5Ac(a2-3)[GalNAc(b1-4)]Gal(b1-4)GlcNAc
Summary of the method: as §1

[3] = target: Neu5Ac(a2-3)[GalNAc(b1-4)]Gal(b1-4)GlcNAc(b1-3)GalNAc
Summary of the method: as §1

[4] = target: Neu5Ac(a2-3)[Neu5Ac(a2-6)]GalNAc
Summary of the method: as §1

Neu5Ac(a2-6)Gal = target: Neu5Ac(a2-6)Gal
Summary of the method: as §1

[5] = target: Neu5Ac(a2-6)Gal(b1-3)GlcNAc(b1-3)[Gal(b1-4)GlcNAc(b1-6)]Gal(b1-4)Glc
Summary of the method: as §1

Neu5Ac(a2-6)Gal(b1-4)Glc = target: Neu5Ac(a2-6)Gal(b1-4)Glc
Summary of the method: as §1

[6] = target: Neu5Ac(a2-6)Gal(b1-4)GlcNAc
Summary of the method: as §1

[7] = target: Neu5Ac(a2-6)Gal(b1-4)GlcNAc(b1-2)Man(a1-3)Man(b1-4)GlcNAc(b1-4)GlcNAc
Summary of the method: as §1

[8] = target: Neu5Ac(a2-6)Gal(b1-4)GlcNAc(b1-2)Man(a1-3)[Gal(b1-4)GlcNAc(b1-2)Man(a1-6)]Man(b1-4)GlcNAc(b1-4)GlcNAc
Summary of the method: as §1

[9] = target: Neu5Ac(a2-6)Gal(b1-4)GlcNAc(b1-2)Man(a1-3)[GlcNAc(b1-2)Man(a1-6)]Man(b1-4)GlcNAc(b1-4)GlcNAc
Summary of the method: as §1

[10] = target: Neu5Ac(a2-6)Gal(b1-4)GlcNAc(b1-2)Man(a1-3)[GlcNAc(b1-2)Man(b1-4)GlcNAc(b1-2)Man(a1-6)]Man(b1-4)GlcNAc(b1-4)GlcNAc
Summary of the method: as §1

[11] = target: Neu5Ac(a2-6)Gal(b1-4)GlcNAc(b1-2)Man(a1-3)[Man(a1-6)]Man(b1-4)GlcNAc(b1-4)GlcNAc
Summary of the method: as §1

[12] = target: Neu5Ac(a2-6)Gal(b1-4)GlcNAc(b1-2)Man(a1-3)[Neu5Ac(a2-6)Gal(b1-4)GlcNAc(b1-2)Man(a1-6)]Man(b1-4)GlcNAc(b1-4)GlcNAc
Summary of the method: as §1

[13] = target: Neu5Ac(a2-6)Gal(b1-4)GlcNAc(b1-2)Man(a1-6)Man(b1-4)GlcNAc(b1-4)GlcNAc
Summary of the method: as §1

[14] = target: Neu5Ac(a2-6)Gal(b1-4)GlcNAc(b1-2)Man(a1-6)[Gal(b1-4)GlcNAc(b1-2)Man(a1-3)]Man(b1-4)GlcNAc(b1-4)GlcNAc
Summary of the method: as §1

[15] = target: Neu5Ac(a2-6)Gal(b1-4)GlcNAc(b1-2)Man(a1-6)[GlcNAc(b1-2)Man(a1-3)]Man(b1-4)GlcNAc(b1-4)GlcNAc
Summary of the method: as §1

[16] = target: Neu5Ac(a2-6)Gal(b1-4)GlcNAc(b1-2)Man(a1-6)[Man(a1-3)]Man(b1-4)GlcNAc(b1-4)GlcNAc
Summary of the method: as §1

[17] = target: Neu5Ac(a2-6)Gal(b1-4)GlcNAc(b1-3)Gal(b1-3)GlcNAc
Summary of the method: as §1

[18] = target: Neu5Ac(a2-6)Gal(b1-4)GlcNAc(b1-3)Gal(b1-4)GlcNAc
Summary of the method: as §1

[19] = target: Neu5Ac(a2-6)Gal(b1-4)GlcNAc(b1-3)Gal(b1-4)GlcNAc(b1-3)Gal(b1-4)GlcNAc
Summary of the method: as §1

[20] = target: Neu5Ac(a2-6)Gal(b1-4)GlcNAc(b1-3)Gal(b1-4)[Fuc(a1-3)]GlcNAc(b1-3)Gal(b1-4)[Fuc(a1-3)]GlcNAc
Summary of the method: as §1

[21] = target: Neu5Ac(a2-6)Gal(b1-4)GlcNAc(b1-3)GalNAc
Summary of the method: as §1

[22] = target: Neu5Ac(a2-6)Gal(b1-4)GlcNAc6S
Summary of the method: as §1

Neu5Ac(a2-6)GalNAc = target: Neu5Ac(a2-6)GalNAc
Summary of the method: as §1

[23] = target: Neu5Ac(a2-6)GalNAc(b1-4)GlcNAc
Summary of the method: as §1

[24] = target: Neu5Ac(a2-6)GlcNAc(b1-4)GlcNAc
Summary of the method: as §1

[25] = target: Neu5Ac(a2-6)GlcNAc(b1-4)GlcNAc(b1-4)GlcNAc
Summary of the method: as §1

Neu5Ac(a2-8)Neu5Ac = target: Neu5Ac(a2-8)Neu5Ac
Summary of the method: as §1

[26] = target: Neu5Ac(a2-8)Neu5Ac(a2-3)Gal(b1-3)GalNAc(b1-4)[Neu5Ac(a2-8)Neu5Ac(a2-3)]Gal(b1-4)Glc
Summary of the method: as §1

[27] = target: Neu5Ac(a2-8)Neu5Ac(a2-3)Gal(b1-4)Glc
Summary of the method: as §1

[28] = target: Neu5Ac(a2-8)Neu5Ac(a2-3)[Gal(b1-3)GalNAc(b1-4)]Gal(b1-4)Glc
Summary of the method: as §1

[29] = target: Neu5Ac(a2-8)Neu5Ac(a2-3)[GalNAc(b1-4)]Gal(b1-4)Glc
Summary of the method: as §1

[30] = target: Neu5Ac(a2-8)Neu5Ac(a2-8)Neu5Ac
Summary of the method: as §1

[31] = target: Neu5Ac(a2-8)Neu5Ac(a2-8)Neu5Ac(a2-3)Gal(b1-4)Glc
Summary of the method: as §1

[32] = target: Neu5Ac(a2-8)Neu5Ac(a2-8)Neu5Ac(a2-3)[GalNAc(b1-4)]Gal(b1-4)Glc
Summary of the method: as §1

[33] = target: Neu5Ac(a2-8)Neu5Ac(a2-8)Neu5Ac(a2-8)Neu5Ac(a2-3)[GalNAc(b1-4)]Gal(b1-4)Glc
Summary of the method: as §1

[34] = target: Neu5Ac(b2-6)Gal(b1-4)GlcNAc
Summary of the method: as §1

Neu5Ac(b2-6)GalNAc = target: Neu5Ac(b2-6)GalNAc
Summary of the method: as §1

[35] = target: Neu5Ac9Ac(a2-3)Gal(b1-3)GlcNAc
Summary of the method: as §1

[36] = target: Neu5Ac9Ac(a2-3)Gal(b1-4)GlcNAc
Summary of the method: as §1

[37] = target: Neu5Ac9Ac(a2-6)Gal(b1-4)GlcNAc
Summary of the method: as §1

[38] = target: Neu5Gc(a2-3)Gal(b1-3)GlcNAc
Summary of the method: as §1

[39] = target: Neu5Gc(a2-3)Gal(b1-3)[Fuc(a1-4)]GlcNAc
Summary of the method: as §1

Neu5Gc(a2-3)Gal(b1-4)Glc = target: Neu5Gc(a2-3)Gal(b1-4)Glc
Summary of the method: as §1

[40] = target: Neu5Gc(a2-3)Gal(b1-4)GlcNAc
Summary of the method: as §1

[41] = target: Neu5Gc(a2-3)Gal(b1-4)[Fuc(a1-3)]GlcNAc
Summary of the method: as §1

[42] = target: Neu5Gc(a2-6)Gal(b1-4)GlcNAc
Summary of the method: as §1

Neu5Gc(a2-6)GalNAc = target: Neu5Gc(a2-6)GalNAc
Summary of the method: as §1

[43] = target: Neu5Gc(b2-6)Gal(b1-4)GlcNAc
Summary of the method: as §1

B1: RS2L (Ralstonia solanacearum), B5RXL5_RALSO (protein)
chain: MAQQGVFTLPANTSFGVTAFANAANTQTIQVLVDNVVKATFTGSGTSDKLLGSQVLNSGSGAIKIQVSVNGKPSDLVSNQTILANKLNFAMVGSEDGTDNDYNDGIAVLNWPLG
glycan array binding signal (z-score) [1]: -0.245
glycan array binding signal (z-score) [2]: -0.243
glycan array binding signal (z-score) [3]: -0.248
glycan array binding signal (z-score) [4]: -0.246
glycan array binding signal (z-score) (Neu5Ac(a2-6)Gal): -0.246
glycan array binding signal (z-score) [5]: -0.237
glycan array binding signal (z-score) (Neu5Ac(a2-6)Gal(b1-4)Glc): -0.246
glycan array binding signal (z-score) [6]: -0.24
glycan array binding signal (z-score) [7]: -0.245
glycan array binding signal (z-score) [8]: -0.251
glycan array binding signal (z-score) [9]: -0.184
glycan array binding signal (z-score) [10]: -0.244
glycan array binding signal (z-score) [11]: 2.49
glycan array binding signal (z-score) [12]: -0.246
glycan array binding signal (z-score) [13]: -0.227
glycan array binding signal (z-score) [14]: -0.237
glycan array binding signal (z-score) [15]: -0.237
glycan array binding signal (z-score) [16]: 2.97
glycan array binding signal (z-score) [17]: -0.251
glycan array binding signal (z-score) [18]: -0.244
glycan array binding signal (z-score) [19]: -0.232
glycan array binding signal (z-score) [20]: -0.052
glycan array binding signal (z-score) [21]: -0.19
glycan array binding signal (z-score) [22]: -0.243
glycan array binding signal (z-score) (Neu5Ac(a2-6)GalNAc): -0.244
glycan array binding signal (z-score) [23]: -0.242
glycan array binding signal (z-score) [24]: -0.243
glycan array binding signal (z-score) [25]: -0.252
glycan array binding signal (z-score) (Neu5Ac(a2-8)Neu5Ac): -0.24
glycan array binding signal (z-score) [26]: -0.245
glycan array binding signal (z-score) [27]: -0.247
glycan array binding signal (z-score) [28]: -0.233
glycan array binding signal (z-score) [29]: -0.245
glycan array binding signal (z-score) [30]: -0.243
glycan array binding signal (z-score) [31]: -0.245
glycan array binding signal (z-score) [32]: -0.252
glycan array binding signal (z-score) [33]: -0.22
glycan array binding signal (z-score) [34]: -0.252
glycan array binding signal (z-score) (Neu5Ac(b2-6)GalNAc): -0.248
glycan array binding signal (z-score) [35]: -0.242
glycan array binding signal (z-score) [36]: -0.257
glycan array binding signal (z-score) [37]: -0.244
glycan array binding signal (z-score) [38]: -0.243
glycan array binding signal (z-score) [39]: -0.202
glycan array binding signal (z-score) (Neu5Gc(a2-3)Gal(b1-4)Glc): -0.245
glycan array binding signal (z-score) [40]: -0.242
glycan array binding signal (z-score) [41]: -0.235
glycan array binding signal (z-score) [42]: -0.245
glycan array binding signal (z-score) (Neu5Gc(a2-6)GalNAc): -0.235
glycan array binding signal (z-score) [43]: -0.242
